Laboratory results taken from paper PMC3380837.
No constants are given. Whether binding was seen depends on the method and setting. Binding seen in cells or lysates may run through a third protein. Some results given as binding are weak or reduced against the parent protein; the word gives no strength. Where a sequence is shown, tags or fusion partners need not be part of it.

Target: T1, GST-FL (GST-SHP full length) (UniProt Q15466)
T1 sequence: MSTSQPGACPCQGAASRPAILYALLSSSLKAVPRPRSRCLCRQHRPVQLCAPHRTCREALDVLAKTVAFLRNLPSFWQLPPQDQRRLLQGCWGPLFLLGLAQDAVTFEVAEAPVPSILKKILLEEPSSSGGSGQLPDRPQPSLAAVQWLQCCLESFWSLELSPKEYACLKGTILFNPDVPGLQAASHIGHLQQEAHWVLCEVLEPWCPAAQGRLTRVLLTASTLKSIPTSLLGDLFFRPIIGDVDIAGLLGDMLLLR
Experiment: pull-down; GST-SHP fusion proteins from E. coli BL21/DE3/RIL as bait; in vitro translated Flag-p53 as prey; only the target purified

In the case of “Flag-p53, in vitro translated (from UniProt P04637 1-393)”, the binding is reported as “binds”.
